From the RNAGym collection of RNA variant scans (doi:10.1093/nar/gkz1192)
The source gives no read counts; variants with many changes may rest on few reads.

B1: CPEB3 Ribozyme (parent)
chain: UAACAGGGGGCCACAGCAGAAGCGUUCACGUCGCAGCCCCUGUCAGAUUCUGGUGAAUCUGCGAAUUCUGCUGUAUAUCUC

Variants of: B1
Test: self-cleavage, relative activity (ratio to wild type); higher = more cleavage; in vitro, sequencing
Summary of the method: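 After error-prone PCR and barcoding, CPEB3 ribozyme mutant libraries were transcribed with T7 RNA polymerase at 37°C for 5 hours, then given 15 min with DNase I before an EDTA stop, and they cleaved during both steps. Reverse transcription with template switching preceded Illumina sequencing. Relative activity divides a variant's cleaved/total read fraction by the unmutated ribozyme's. At least 5 reads were required per variant, and three batches were averaged.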

Row | Variant | self-cleavage
1 | A5G A35U U69A | 0.07
2 | A5G A35U U80A | 0.45
3 | A5G A45C U74C | 0.64
4 | A5G A45C U80C | 0.51
5 | A5G A45G A64G U67C | 0.38
6 | A5G A45G C62G A64U | 0.31
7 | A5G A45G G70A | 0.4
8 | A5G A45G U54C U67C | 0.34
9 | A5G A45G U69C | 0.23
10 | A5G A45G U74C | 0.84
11 | A5G A45U A56U U60C U69C | 0.23
12 | A5G A45U A57U | 0.25
13 | A5G A45U A64G | 0.33
14 | A5G A45U A65U | 0.23
15 | A5G A45U U49C A56G | 0.3
16 | A5G A45U U49C A64G | 0.51
17 | A5G A45U U54C | 0.38
18 | A5G A45U U60C | 0.28
19 | A5G A45U U66C U72A | 0.57
20 | A5G A47G A56G U69C | 0.32
21 | A5G A47G U48C | 0.38
22 | A5G A47G U49C C68U | 0.04
23 | A5G A47G U54C U58A | 0.12
24 | A5G A47G U54C U58C C59G | 0.29

Row | Variant | self-cleavage
25 | A5G A47G U66A U78C | 0.12
26 | A5G A47G U72C | 0.76
27 | A5G A56G A57G U58C | 0.34
28 | A5G A56G U67A | 0.27
29 | A5G A56G U78C | 0.41
30 | A5G A56U C68U | 0.22
31 | A5G A56U G73A | 0.77
32 | A5G A56U U58A U80C | 0.24
33 | A5G A56U U58C U69C | 0.08
34 | A5G A57C U80C | 0.1
35 | A5G A57G G63A U66A | 0.34
36 | A5G A57G U67C U76A | 0.19
37 | A5G A57G U69A | 0.42
38 | A5G A57U U80C | 0.61
39 | A5G A64G A77U | 0.64
40 | A5G A64G C81U | 0.77
41 | A5G A64U U72G | 0.41
42 | A5G A65G U69A U72A U78A | 0.13
43 | A5G A65G U69A U78A | 0.34
44 | A5G A75U U78C | 0.95
45 | A5G C11A A18U U31C G52A U69A | 0.19
46 | A5G C11A A21G U26A G46U G63U A64G | 0.18
47 | A5G C11A A21G U31C A45G | 0.06
48 | A5G C11A A56G A64U U69G | 0.06

Row | Variant | self-cleavage
49 | A5G C11A G46A A64U C71A | 0.19
50 | A5G C11A U66C | 0.14
51 | A5G C11G A13U A15U G30A A56G A77G | 0.06
52 | A5G C11G A18G U43A U66C U72C | 0.09
53 | A5G C11G C23G C39A U41C | 0.07
54 | A5G C11G C29U U31C A57G A64G | 0.21
55 | A5G C11G G24A U72C | 0.09
56 | A5G C11G U41A A64U U69A | 0.07
57 | A5G C11G U72C | 0.49
58 | A5G C11U A13G U26C G36U | 0.12
59 | A5G C11U A15G U49A | 0.63
60 | A5G C11U A45G U72C | 0.39
61 | A5G C11U G24A A45G C68A | 0.17
62 | A5G C11U U25C C38G U41A | 0.05
63 | A5G C11U U58C U72C | 0.06
64 | A5G C12A A15C G24A | 0.07
65 | A5G C12A A18U A20G C44U C71U | 0.04
66 | A5G C12A A21U C32U A47U A57U | 0.06
67 | A5G C12A A35U C37A A56G U78C | 0.17
68 | A5G C12A A75G | 1.02
69 | A5G C12A C29U | 0.45
70 | A5G C12A U67A U72C U76C U80C | 0.19
71 | A5G C12G A21G A45U | 0.52
72 | A5G C12U A13G A28U U43C U54C U58C | 0.05

Row | Variant | self-cleavage
73 | A5G C12U A13U A21G U43A | 0.86
74 | A5G C12U A15G U25C A35U | 0.37
75 | A5G C12U A18C U25C U80A | 0.08
76 | A5G C12U A20G | 0.66
77 | A5G C12U A28U U67A U69A U72A U80C | 0.11
78 | A5G C12U A64C | 0.22
79 | A5G C12U C14G U25C U26C | 0.13
80 | A5G C12U U25C U26C A28U | 0.06
81 | A5G C12U U25C U31C U41C U54A U67C | 0.07
82 | A5G C12U U43A U58C U60C U76C | 0.15
83 | A5G C12U U48C U51A C62U | 0.25
84 | A5G C12U U49A | 0.58
85 | A5G C12U U66C | 0.19
86 | A5G C14A A18G U43C | 0.31
87 | A5G C14A U60C | 0.38
88 | A5G C14U A35G A45U | 0.93
89 | A5G C14U C32U | 0.29
90 | A5G C14U U26C U60C | 0.1
91 | A5G C14U U41G U51C U78C | 0.14
92 | A5G C14U U51C G52U | 0.99
93 | A5G C17A G30A A47G C79A | 0.2
94 | A5G C17A U41C A64G C71G G73A | 0.3
95 | A5G C17G A18G C40U U41A A57U U69C | 0.06
96 | A5G C17G A57U | 0.7

Row | Variant | self-cleavage
97 | A5G C17G U25C U26C A47G U67C U72G | 0.13
98 | A5G C17G U41A U48C U72A | 0.09
99 | A5G C17U A18G U67C U69C | 0.32
100 | A5G C17U A21G | 0.27
101 | A5G C17U A21U A28G A75G U78C | 0.16
102 | A5G C17U A28G G30A A45C | 0.25
103 | A5G C17U A64G U72C | 0.36
104 | A5G C17U C32U G42A U69C | 0.7
105 | A5G C17U C40G U60A A64G | 0.22
106 | A5G C17U G24A U49C A56U G70A | 0.05
107 | A5G C17U G30A A56C U60A A64G | 0.06
108 | A5G C23A U43A U80A | 0.11
109 | A5G C23G A28G U41C A47U G52A U72C | 0.08
110 | A5G C23G A57G | 0.33
111 | A5G C23G U48C A56U C59U | 0.08
112 | A5G C23U A64G | 0.25
113 | A5G C23U G24A A57G U72C | 0.14
114 | A5G C23U G53A U76C | 0.16
115 | A5G C23U U49C U51A A64G | 0.11
116 | A5G C27A G42U | 0.48
117 | A5G C27U U41C U54A | 0.08
118 | A5G C27U U60C | 0.47
119 | A5G C29U A35U U51C A57G | 0.09
120 | A5G C29U A57G | 0.32

Row | Variant | self-cleavage
121 | A5G C29U U31A A45U | 0.16
122 | A5G C29U U41A G55U G61U | 0.1
123 | A5G C29U U51C U69C | 0.22
124 | A5G C29U U60C A65G | 0.55
125 | A5G C29U U72A | 0.27
126 | A5G C32A U48A A64G | 0.09
127 | A5G C32A U69A | 0.3
128 | A5G C32G U49C A64U | 0.09
129 | A5G C32U A45C U58C | 0.21
130 | A5G C32U A64U | 0.27
131 | A5G C32U C40U U69A U80C | 0.09
132 | A5G C32U U43C | 0.22
133 | A5G C32U U72A | 0.2
134 | A5G C34A C37G U41A U54C U67C A75C | 0.12
135 | A5G C34G U43C A45G U54C U74C | 0.09
136 | A5G C34U A35G U60A U67C | 0.07
137 | A5G C34U A56G C59U | 0.26
138 | A5G C37A A56G | 0.2
139 | A5G C37A U48C A64G | 0.08
140 | A5G C38G U51G U54C U69C U72C | 0.29
141 | A5G C38G U67C U69A | 0.11
142 | A5G C38U U41C U51A | 0.68
143 | A5G C38U U43C U51G U72A U74C | 0.15
144 | A5G C38U U51C U54C | 0.18

Row | Variant | self-cleavage
145 | A5G C39A C62U G70A U78C | 0.07
146 | A5G C39G U80C | 0.1
147 | A5G C39U U66C | 0.45
148 | A5G C40A U51A U60A U66A U76A | 0
149 | A5G C40U U43C U49C A75U | 0.07
150 | A5G C40U U51C A57G | 0.3
151 | A5G C40U U51C A65G U69A U80C | 0.04
152 | A5G C40U U69A | 0.26
153 | A5G C44A U69C | 0.12
154 | A5G C44G C62G | 0.29
155 | A5G C44G U72C | 0.31
156 | A5G C50A A65G | 0.23
157 | A5G C62U U80C | 0.09
158 | A5G C68A U72A | 0.18
159 | A5G C71U A77G | 0.33
160 | A5G G6A A15U | 0.1
161 | A5G G6A A20U A21G U25C | 0.3
162 | A5G G6A A20U A56G U76A A77G | 0.05
163 | A5G G6A G8U A20G A21G A28U U80C | 0.06
164 | A5G G6A U25C U41C U66C U80G | 0.07
165 | A5G G6A U31A | 0.32
166 | A5G G6C C23G U25C U49A | 0.39
167 | A5G G6C C39U A65U | 0.04
